{"source": "paper PMC6919601", "about": "“Identification of Plasmodium dipeptidyl aminopeptidase allosteric inhibitors by high throughput screening” (PLoS ONE, 2019)", "note": "About 230 (0.21%) of roughly 110,000 compounds showed an effect of 50% or more. The list shows a part of the results.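 Further: 30 min substrate incubation versus DMSO and 10 µM JCP410 controls.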", "data": [{"target": "DPAP1 (Plasmodium falciparum, UniProt Q8IIJ9)", "sequence (Q8IIJ9 whole entry, looked up)": "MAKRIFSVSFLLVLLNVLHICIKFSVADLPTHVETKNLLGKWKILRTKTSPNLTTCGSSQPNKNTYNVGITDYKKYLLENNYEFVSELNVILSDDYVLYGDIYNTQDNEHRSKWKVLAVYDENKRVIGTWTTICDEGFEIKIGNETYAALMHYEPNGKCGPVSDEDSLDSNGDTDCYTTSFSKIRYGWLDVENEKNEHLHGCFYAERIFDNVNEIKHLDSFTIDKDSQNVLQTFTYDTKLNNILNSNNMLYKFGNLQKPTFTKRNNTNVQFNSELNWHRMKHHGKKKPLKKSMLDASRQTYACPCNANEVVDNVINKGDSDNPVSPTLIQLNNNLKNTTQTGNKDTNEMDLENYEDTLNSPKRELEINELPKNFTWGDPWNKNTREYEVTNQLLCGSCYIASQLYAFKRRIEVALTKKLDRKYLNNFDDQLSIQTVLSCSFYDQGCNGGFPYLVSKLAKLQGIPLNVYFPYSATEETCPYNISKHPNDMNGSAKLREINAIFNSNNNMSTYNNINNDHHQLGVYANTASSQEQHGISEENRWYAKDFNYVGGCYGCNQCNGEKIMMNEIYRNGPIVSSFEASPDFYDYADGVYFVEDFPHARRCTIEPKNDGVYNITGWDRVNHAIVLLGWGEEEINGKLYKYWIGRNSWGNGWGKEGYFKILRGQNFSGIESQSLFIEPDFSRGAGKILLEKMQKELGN", "assay": "primary screen, percent inhibition; read by cleavage of a fluorogenic dipeptide substrate; higher = more effect of the substance", "parameters": "species or system P. falciparum D10 trophozoite lysates; single well", "units": {"% Inhibition @ 10 uM": "%"}, "values": [{"smiles": "COc1ccc(C(=O)O)cc1S(=O)(=O)N1CCCCCC1", "% Inhibition @ 10 uM": -1.41}, {"smiles": "COc1cc(C2NC(C(=O)O)Cc3c2[nH]c2ccccc32)cc(OC)c1OC", "note": "(stereo not drawn)", "% Inhibition @ 10 uM": 1.29}, {"smiles": "O=C(Nc1ccccc1C(=O)NCCCCO)c1ccc(Cl)cc1Cl", "% Inhibition @ 10 uM": 18.3}, {"smiles": "COc1ccc(-c2nc(C(Cl)(Cl)Cl)nc(C(Cl)(Cl)Cl)n2)cc1", "% Inhibition @ 10 uM": 5.98}, {"smiles": "Cc1cc(C)c2nc(N3CCCC(C(=O)N4CCN(c5ncccn5)CC4)C3)sc2c1", "note": "(stereo not drawn)", "% Inhibition @ 10 uM": 6.46}, {"smiles": "O=C(COc1cccc(Br)c1)Nc1ccc(N2CCCCC2)cc1", "% Inhibition @ 10 uM": -14.3}, {"smiles": "CC(C)(C)C1CCC(N2CCC(C(N)=O)CC2)CC1", "note": "(stereo not drawn)", "% Inhibition @ 10 uM": -1.82}, {"smiles": "O=C(CC1(c2ccccc2)C(=O)c2ccccc2C1=O)Nc1c(Cl)cccc1Cl", "% Inhibition @ 10 uM": 1.7}, {"smiles": "Cc1cc(C)nc(NC(=O)c2ccc(Br)cc2)n1", "% Inhibition @ 10 uM": -3.45}, {"smiles": "CCOC(=O)C1=C(CSc2nc3c(cc2C#N)CCC3)OC(N)=C(C#N)C1c1cccs1", "note": "(stereo not drawn)", "% Inhibition @ 10 uM": 3.39}, {"smiles": "CC(C)NC(=O)c1cc2ccccc2oc1=O", "% Inhibition @ 10 uM": -7.33}, {"smiles": "COc1ccc(-c2c(C)s/c(=N\\C(=O)c3cccc(OC)c3)n2C)cc1", "% Inhibition @ 10 uM": 0.324}, {"smiles": "COc1ccc(C(=O)Nc2c3c(nn2-c2ccc(C)cc2)CS(=O)(=O)C3)cc1OC", "% Inhibition @ 10 uM": 1.62}, {"smiles": "CCN(CC)CCn1c2ccccc2c2nnc(S)nc21", "% Inhibition @ 10 uM": 30.9}, {"smiles": "COc1ccccc1C(C1C(=O)CC(C)(C)CC1=O)C1C(=O)CC(C)(C)CC1=O", "% Inhibition @ 10 uM": 1.2}, {"smiles": "CCSc1sc(CC)cc1C1C2=C(O)CCCC2=NC(C)=C1C(=O)Nc1cccnc1", "note": "(stereo not drawn)", "% Inhibition @ 10 uM": 0.484}, {"smiles": "CCCCC1CCC(C(=O)N(Cc2ccccc2F)C2CCS(=O)(=O)C2)CC1", "note": "(stereo not drawn)", "% Inhibition @ 10 uM": 6.67}, {"smiles": "COc1cccc(C2=CC(c3cccc(OC)c3OC)n3c(nc4ccccc43)N2)c1", "note": "(stereo not drawn)", "% Inhibition @ 10 uM": 0.0842}, {"smiles": "NC(=O)c1c(NC(=O)c2nc(S(=O)(=O)Cc3ccccc3)ncc2Cl)sc2c1CCCC2", "% Inhibition @ 10 uM": 4}, {"smiles": "COc1ccc(C2CC(C(F)(F)F)n3nc(C(=O)N(C)Cc4cn(C)nc4C)c(Cl)c3N2)cc1", "note": "(stereo not drawn)", "% Inhibition @ 10 uM": 2.32}, {"smiles": "O=[N+]([O-])c1cc(CN2CCCCCC2)ccc1O", "% Inhibition @ 10 uM": -4.04}, {"smiles": "CN(Cc1ccc(N(C)C)cc1)CC(O)c1ccccc1", "note": "(stereo not drawn)", "% Inhibition @ 10 uM": -5.31}, {"smiles": "CCOC(=O)N1CCN(CC(O)COc2cc(C)c(Cl)c(C)c2)CC1", "note": "(stereo not drawn)", "% Inhibition @ 10 uM": -1.26}, {"smiles": "CC(C)(C)c1ccc(-c2nc(NCc3cccnc3)c3ccccc3n2)cc1", "% Inhibition @ 10 uM": 2.03}, {"smiles": "CCOc1ccc(-n2c(C)nnc2SCc2nc(-c3ccc(OC)cc3)no2)cc1", "% Inhibition @ 10 uM": -5.91}, {"smiles": "CC(C)CC(C(=O)NCC#N)n1cnc2c(NCCN3CCOCC3)ncnc21", "note": "(stereo not drawn)", "% Inhibition @ 10 uM": 0.173}, {"smiles": "Cc1ccc(NC(=O)c2noc3c2COc2ccc(C)cc2-3)nc1", "% Inhibition @ 10 uM": -2.61}, {"smiles": "Cn1c(=O)[nH]c(=O)c2c1nc(Br)n2CCN1C(=O)c2ccccc2C1=O", "% Inhibition @ 10 uM": 4.86}, {"smiles": "COc1ccc(NC(=S)NC(=O)c2ccccc2)cc1", "% Inhibition @ 10 uM": -0.415}, {"smiles": "CCc1ccccc1NC(=O)c1ccc(N2C(=O)c3ccccc3C2=O)cc1", "% Inhibition @ 10 uM": -1.38}, {"smiles": "Cc1ccccc1C1CC(=O)N2CN(Cc3ccccc3)CSC2=C1C#N", "note": "(stereo not drawn)", "% Inhibition @ 10 uM": 31.2}, {"smiles": "COC(=O)c1c(C)oc2ccc(O)c(CN3CCOCC3)c12", "% Inhibition @ 10 uM": -4.82}, {"smiles": "Cc1cc(Nc2ccccc2)cc(=O)n1C", "% Inhibition @ 10 uM": 0.727}, {"smiles": "O=C(CSc1nc2ccccc2o1)Nc1ccccc1F", "% Inhibition @ 10 uM": 2.48}, {"smiles": "CC1(C)CC(NS(C)(=O)=O)CC(C)(C)N1OC(=O)c1ccccc1", "% Inhibition @ 10 uM": 1.03}, {"smiles": "CCc1c(CN2CCN(C3CCCCC3)CC2)csc1C", "% Inhibition @ 10 uM": -7.94}, {"smiles": "O=S(=O)(c1cccc2n[se]nc12)N1CCOCC1", "% Inhibition @ 10 uM": 6.59}, {"smiles": "COc1ccc(S(=O)(=O)N(CC(=O)NC2CC2)c2ccc(C)cc2)cc1Br", "% Inhibition @ 10 uM": -5.66}, {"smiles": "COc1ccccc1N1CCN(C(=O)c2ccccc2N(Cc2ccccc2)S(C)(=O)=O)CC1", "% Inhibition @ 10 uM": 0.635}, {"smiles": "CCOc1ccccc1-n1nnc(-c2nc(-c3cccs3)no2)c1N", "% Inhibition @ 10 uM": 3.98}, {"smiles": "O=C(CC1Nc2ccccc2NC1=O)Nc1ccccc1C(F)(F)F", "note": "(stereo not drawn)", "% Inhibition @ 10 uM": 5.39}, {"smiles": "O=C(NCc1ccncc1)c1nnc(Cc2ccccc2Cl)o1", "% Inhibition @ 10 uM": -0.0709}, {"smiles": "CCc1ccccc1NC(=O)Cn1nc(C(F)(F)F)cc1C1CC1", "% Inhibition @ 10 uM": -3.92}, {"smiles": "COc1ccc(C(=O)NCCc2ccccc2)cc1", "% Inhibition @ 10 uM": -0.128}, {"smiles": "CCOC(=O)C1=C(CC)OC(N)=C(C#N)C1c1ccc(OC)c(Br)c1", "note": "(stereo not drawn)", "% Inhibition @ 10 uM": -5.65}, {"smiles": "CCOC(=O)c1c(NS(=O)(=O)c2ccc([N+](=O)[O-])cc2)sc(C)c1C", "% Inhibition @ 10 uM": -6.99}, {"smiles": "CCN(CC)C(=O)/C(=C/c1cn(CC)c2ccccc12)NC(=O)c1ccccc1F", "% Inhibition @ 10 uM": -1.74}, {"smiles": "CNC(=O)/C(C#N)=C/c1c(Oc2ccccc2)nc2ccccn2c1=O", "% Inhibition @ 10 uM": -0.828}, {"smiles": "Cc1ccc(C2C(C(=O)c3ccccc3)=C(O)C(=O)N2CCN2CCOCC2)o1", "note": "(stereo not drawn)", "% Inhibition @ 10 uM": -1.25}, {"smiles": "Cn1c(C(=O)N2CCC(C(=O)N3CCN(C(=O)c4ccco4)CC3)CC2)cc2sccc21", "% Inhibition @ 10 uM": 4.95}, {"smiles": "Cc1c(C(=O)NCCN2CCOCC2)oc2c1-c1nn(Cc3ccccc3Cl)cc1CC2", "% Inhibition @ 10 uM": -4.49}, {"smiles": "CC1=C(C(=O)OCCOc2ccccc2)C(c2cccc(Cl)c2)C2=C(O)CCCC2=N1", "note": "(stereo not drawn)", "% Inhibition @ 10 uM": 11.8}, {"smiles": "CCOC(=O)c1sc(Nc2nc(N(C)C)nc(N(C)C)n2)nc1C", "% Inhibition @ 10 uM": -3.08}, {"smiles": "O=C(Nc1ccc(O)cc1)c1ccc(Br)cc1", "% Inhibition @ 10 uM": 0.641}, {"smiles": "CCOC(=O)N1CCN(C(=O)/C(=C\\c2cccs2)NC(=O)c2ccccc2)CC1", "% Inhibition @ 10 uM": 3.05}, {"smiles": "Cn1c(Cn2nnc(-c3ccccc3)n2)nnc1SCC(N)=O", "% Inhibition @ 10 uM": -0.403}, {"smiles": "CC(Oc1cccc(Cl)c1)C(=O)Nc1ccc(F)c(F)c1", "note": "(stereo not drawn)", "% Inhibition @ 10 uM": 5.24}, {"smiles": "COc1ccc(-c2cnnn2-c2nonc2-n2cccc2)cc1", "% Inhibition @ 10 uM": -1.05}, {"smiles": "CN1C(=O)c2cccc(NCCCCN3C(=O)c4ccccc4C3=O)c2C1=O", "% Inhibition @ 10 uM": -5.79}, {"smiles": "CCC12CC3CC(C1)CC(NC(=O)NC14CC5CC(CC(CC)(C5)C1)C4)(C3)C2", "% Inhibition @ 10 uM": -6.12}, {"smiles": "N#Cc1c(NCc2ccccc2)ccnc1SCc1ccccc1", "% Inhibition @ 10 uM": -0.693}, {"smiles": "CC12CN3CC(C)(CN(C1)C3c1cccc(Br)c1)C2", "note": "(stereo not drawn)", "% Inhibition @ 10 uM": -10.2}, {"smiles": "COCCNC(=O)Cn1cc(C#N)c2ccccc21", "% Inhibition @ 10 uM": -4.65}]}]}
